# In ChEMBL document CHEMBL4888484, “Replenishing the malaria drug discovery pipeline: Screening and hit evaluation of the MMV Hit Generation Library 1 (HGL1) against asexual blood stage Plasmodium falciparum ,using a nano luciferase reporter read-out” (2022):
# Hit rate of the full screen: of about 150,000 compounds, about 540 (0.36%) showed an effect of 50% or more. The list shows a part of the results.
# System: Plasmodium falciparum
# Experiment: Primary screen in NF54 nanoGlo assay, in single point, at 2uM, 72h; a lower Z score goes with more inhibition
# Format: functional, Erythrocyte
# Details: timepoint 72 hour
SMILES,% Inhibition,Z score
CCCc1nc(-c2ccccc2)oc1CC(=O)Nc1ccc(Br)cc1F,2%,-0.42
CC(C)[C@H](NS(=O)(=O)c1cccnc1)c1ncnn1C,-5%,0.74
CCN(Cc1noc(C)n1)C(=O)Nc1cc(N2CCOCC2)ccc1Cl,6%,-1.02
CNC(=O)CN(C(=O)OC(C)(C)C)[C@H]1CCCC[C@@H]1NS(=O)(=O)C1CC1,-5%,0.66
Cc1nc(C(C)(C)NC(=O)c2ccc(-c3ccccc3F)o2)no1,-10%,1.39
Cc1c[nH]nc1C(=O)N(C)[C@H]1CCN(C(C)C)C1,4%,-0.73
CC(=O)Nc1ccc(NC(=O)C2CCN(S(=O)(=O)c3cc4c(cc3C)NC(=O)CO4)CC2)cc1,1%,-0.16
CS(=O)(=O)NC[C@H]1CCCN(c2nnc(C(F)(F)F)s2)C1,-3%,0.47
Cc1ccc(S(=O)(=O)N2CCCC(=O)c3ccccc32)cc1,37%,-4.8
CCOC(=O)c1ccc(NC(=O)CC2CCC2)cn1,3%,-0.29
C[C@H](Nc1ccc(F)cc1C#N)c1cccc(-n2cncn2)c1,3%,-0.3
O=C(N[C@@H]1C[C@@H](CO)OC1=O)OCc1ccccc1,11%,-1.69
Cc1ccc(C)c(CN2CCC(CNC(=O)c3nc(-c4ccc(N(C)C)cc4)no3)CC2)c1,-17%,1.7
CCc1ccccc1CN1CCN(Cc2ccncc2)[C@@H]2CS(=O)(=O)C[C@@H]21,1%,-0.19
FC(F)(F)c1nccc(NCCc2cccs2)n1,-8%,0.81
Cc1nc(N2CCCC2)c2c(C(=O)Nc3ccc(C(C)C)cc3)c(C)oc2n1,0%,0.03
CCN1CC(=O)N[C@@H]1c1ccc(C)s1,-4%,0.71
COC(=O)[C@@H](NC(=O)Cc1cc(C)[nH]n1)C(C)(C)C,-8%,1.05
O=C(N[C@H]1CC12CCN(C(=O)C1CCOCC1)CC2)c1ccccc1,-8%,1
COc1cc(C)cc(OC)c1[C@H](C(=O)O)N(C)CCc1cnn(C)c1,-12%,2.37
O=C(c1c[nH]cn1)N1CC[C@@]2(CCCN(CC3CCCCC3)C2=O)C1,-4%,0.55
CC1CC2CCCCC2N1C(=O)c1ccon1 (centres undefined),-7%,0.89
O=C(c1[nH]nc(C2CC2)c1Cl)N1CCN(S(=O)(=O)c2ccc3ccccc3c2)CC1,-15%,2.52
CN(CCCc1nccn1C)C(=O)c1ccc(-c2ccncc2F)cc1,-26%,2.8
CC(=O)C(=O)N1CC(=O)N(c2ccccc2-c2ccccc2)C[C@@H]1Cc1ccccc1,-6%,0.64
C#CCCC1(CCC(=O)N2CC[C@H](n3cc(Cl)cn3)C2)N=N1,-5%,0.71

SMILES,% Inhibition,Z score
CC1(C)[C@@H](NS(=O)(=O)c2cccnc2C#N)[C@@H]1c1ccccc1,-8%,1.38
COc1ccccc1CN1Cc2cc(NC(=O)CC(C)(C)C)ccc2O[C@@H](C)C1=O,-22%,2.1
CN(C[C@H]1CCCN1C)C(=O)c1csc2nc(-c3ccccc3)cn12,0%,-0.01
O=C(O)[C@@H]1CCCN1Cc1nn(-c2ccc(F)cc2)c2c1CCC2,-27%,2.46
Cc1ccc(-c2noc(CNc3nc(N)nc4c3CCNCC4)n2)cc1,5%,-0.66
NC(N)=Nc1nc(C2CCOCC2)cs1,11%,-1.37
C[C@H]1CCCCN1C(=O)Cn1c(=O)n(-c2cc(F)cc(F)c2)c(=O)c2sccc21,31%,-3.56
Cc1cccnc1[C@H](C)NC(=O)CCCc1cn[nH]c1,7%,-0.96
c1ccc(CC2CCN(c3ncnc4c3[nH]c3ccccc34)CC2)cc1,35%,-3.95
Cc1ccccc1C(=O)N1[C@H](C(=O)NCc2ccccc2)COC12CCN(C(=O)c1ccc(Cl)cc1)CC2,7%,-1.16
CCOc1ccc(NC(=O)C23CCC(C)(C(=O)C2=O)C3(C)C)cc1 (centres undefined),-19%,3.78
CCC(C)C(NC(=O)N1CCC(C)CC1)C(=O)O (centres undefined),1%,-0.09
CCOc1ccc(-c2ccc(=O)n([C@@H](C)C(=O)NCCn3ccnc3C)n2)cc1,27%,-3.5
Cc1ccc([C@@H]2Cn3nnc(C(=O)N4CCC(C(=O)NC5CCCCC5)CC4)c3CO2)cc1,-19%,1.74
CC(NC(C)C1CN(C(=O)OC(C)(C)C)C1)c1cnn(C)c1 (centres undefined),-6%,0.85
Cc1cccc2nc(N3CC[C@]4(CCNC4)C3)oc12,-7%,0.79
COc1cc(-c2n[nH]cc2CN2CCC[C@H]2C(N)=O)cc(OC)c1OC,2%,-0.39
CC1(C)c2ccccc2N2CC(=O)N(Cc3cccc4ccccc34)[C@@]21C,-3%,0.4
Cc1noc(C)c1S(=O)(=O)N(C)Cc1nnc(-c2ccccc2Br)o1,-8%,1.25
O=C(NC[C@H]1COCCO1)C1(c2cc(F)cc(F)c2)CCCC1,2%,-0.31
CN1CCN[C@@H](CNC(=O)c2ccc(-c3cc(F)c(F)c(F)c3)cc2)C1,2%,-0.37
CNC(=O)NC(=O)[C@H](C)Nc1ccc(C)cc1C,17%,-1.98
CN1CCCOc2cccc(c2)[C@@H]2N(C(=O)c3cn(C)cn3)CC[C@]23C(=O)N(CC1=O)c1ccccc13,5%,-1.02
CN(Cc1noc(C2CC2)n1)C(=O)[C@H]1CC(=O)N(C)[C@@H]1c1nccn1C,-1%,0.16
O=C(O)CC1(NC(=O)c2cc(Oc3ccccc3)ccn2)CCC1,39%,-5.28
O=C(Nc1cc(S(=O)(=O)N2CCOCC2)ccc1N1CCCC1)c1cc(O)nc2ccccc12,-2%,0.3
